Reference: the RNAGym collection of RNA variant scans (doi:10.1101/gad.245936.114)
Variants at the floor of the assay are shown more often than the library holds them.

B1: tRNA (parent)
chain: CUCUCGGUAGCCAAGUUGGUUUAAGGCGCAAGACUUUAAUUUAUCACUACGAAAUCUUGAGAUCGGGCGUUCGACUCGCCCCCGGGAGAUUUUUUCCUCGAGCAA

Variants of: B1
Test: nonsense suppression (GFP-seq) (ratio to wild type); higher = more function; SUP4oc tRNA, yeast GFP reporter sort-seq
Outline: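 Yeast were grown in raffinose/galactose medium with 80 mg/L adenine, each strain bearing a genome-integrated ochre-suppressor tRNA variant from a ~3% random-mutation library, a galactose-driven GFP ochre reporter, and RFP. After sorting into GFP/RFP bins, every bin was sequenced on an Illumina platform at phred ≥30. The GFPSEQ value, a measure of nonsense suppression, is the weighted bin median GFP/RFP relative to the unmutated parent tRNA, using each variant's estimated cell share per bin as the weight. Only variants with ≥100 reads and ≥30 cells were included.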

Nonsense suppression, ≤ 0.026:
G26A C82A
G26A G28U A33G G59U
G26A G32C C82G G84A
G26A G32U G84C
G26A G59A G73U
G26A G59A U63C
G26A G59C
G26A G59C C72U
G26A G59U G66A
G26A G61U
G26A G61U G86C
G26A G65A
G26A G65C
G26A G67A A74G
G26A G67C
G26A G73C
G26A G78U
G26A G85C
G26A G86U
G26A G88A
G26A U35A
G26A U55A
G26A U55C G66C
G26A U63C U70A
G26A U70A
G26C A30C C81U
G26C A30G G69C G84A
G26C A30U
G26C A30U G65U
G26C A31C G73U A74U
G26C A31G
G26C A31G A62C C80U
G26C A31G U63C C82U
G26C A31U C68G
G26C A33G
G26C A33U C34G C72U
G26C A33U G69C
G26C A60U U76C
G26C A62G C83U
G26C A87G
G26C A89C
G26C A89U
G26C C27G U35C G59C G67A
G26C C29A C82A
G26C C29A G84A G85A
G26C C34A C68G
G26C C34A G65U
G26C C34G A62C G66C
G26C C34G C75A A87G
G26C C34G C75A A87U
G26C C56U U63C
G26C C64A G85C
G26C C68A G86U
G26C C68A U76G G88C
G26C C68G
G26C C72G
G26C C75U
G26C C81U
G26C C83A
G26C G32C G59C G86U
G26C G32C U57C
G26C G32U
G26C G59A
G26C G59C G88A
G26C G61C U76A
G26C G67A
G26C G73U
G26C G73U G84U
G26C G78C
G26C G85C
G26C G86A
G26C U35C U58A
G26C U55A
G26C U57C C68A G73C
G26C U57G U58G
G26C U63A
G26C U71A A89C
G26U A30G U58A G84C G88A
G26U A30G U63G G65C
G26U A31C A54C C77G G78C
G26U A31C C34U
G26U A31C G65C
G26U A31G
G26U A31G G65C G86A
G26U A33C
G26U A33G
G26U A33U
G26U A33U A89U
G26U A60C A74C
G26U A62C
G26U A62U G66C
G26U A74C C82G
G26U A74C U76G
G26U A89U
G26U C27A A60G U76C
G26U C27G
G26U C27G U63G
G26U C29U A74G
G26U C56G A62U
G26U C64G G67C G78A
G26U C68U
G26U C75A C82G
G26U C75U
G26U C80G
G26U C81G
G26U C83A
G26U C83U
G26U G28U
G26U G28U G61U G65A G67U G69C
G26U G59U A62C G67A C83G
G26U G59U A62C G67A C83U
G26U G66A G78A A87C
G26U G84C
G26U U35A A62C U63C
G26U U55A
G26U U55G U63G U70C U76A
G26U U58C G59U
G26U U70C
G26U U70C U71G
G26U U71A
G26U U71G
C27A A30C A60G C77G C81A
C27A A31G
C27A A31G C80A
C27A A31U G59C G66C C79A
C27A A33G A74G G84U
C27A A33G U35A U57A G65A A87U
C27A A33U A60U
C27A A60U U76A
C27A A74U C79U
C27A A87G
C27A A87U
C27A C29A C72A
C27A C29A G88A
C27A C29A U71C C79U
C27A C29U
C27A C34G A74U
C27A C34G U57G
C27A C56G U76C
C27A C64A U76A
C27A C75U
C27A C79A C82G
C27A C80U
C27A G28C A31G C79A
C27A G28U A60C G73U
C27A G32A
C27A G32A A54U U58G
C27A G59A
C27A G59C U70A U71A
C27A G59U C64G
C27A G59U G73C
C27A G61U A62C
C27A G66A
C27A G66A U76C
C27A G67A G85C
C27A G69C
C27A G73U A74U G84A
C27A G84U
C27A G85C
C27A U35C G66C G88C
C27A U35G C64G
C27A U35G U55A
C27A U55A A60G G66C
C27A U55A G61C U63A U76C
C27A U55A G85U
C27A U55C U71C
C27A U57A
